# Test results reported in PubChem BioAssay AID1466 (National Center for Advancing Translational Sciences (NCATS), 2008).
# Out of some 200,000 compounds screened, about 10 (0.005%) were called active. Inconclusive results, whose numbers are uncertain, are shown with a selection of clear calls. Calls come from the whole dose curve; as a rule, active = well fitted inhibition curve with a large enough effect; inconclusive = small, poorly fitted or top-dose-only effect, or effect the other way, or another doubt; inactive = no such curve, though single readings can be large or run the other way. Potencies of inconclusive entries are left out as doubtful fits.
# Target: Lysosomal alpha-glucosidase (Homo sapiens) (UniProt P10253)
# Assay: qHTS Assay for Inhibitors of Human alpha-Glucosidase as a Potential Chaperone Treatment of Pompe Disease;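 for activity change, negative = inhibition: plate controls were uninhibited enzyme wells for no effect and no-enzyme background for full effect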
# Settings: purified human GAA, 4-MU-alpha-glucoside fluorescence; activity change, negative = inhibition: at 76.9 µM (top of the series) unless noted
# How it was run: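 qHTS format, compound range up to 77 uM. Human lysosomal enzyme at 4 nM, 400 uM 4-MU glucoside substrate, pH 5.0, 20 min room temperature; fluorescence after alkaline stop gives activity normalized to controls.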
# Potency is the fitted concentration of half-maximal effect; tags give direction and shape of the fitted curve.
Compound,"activity change, negative = inhibition",Potency
Cc1csc(NC(=O)CSc2nnc(NC(=O)COc3ccc(Cl)cc3)s2)n1,inactive: -3.25%,
CCCCCN1C=CC(=C2C(=O)c3ccccc3C2=O)C=C1,inactive: -2.36%,
O=c1oc2ccccc2cc1-c1nc2ccccc2o1,,"inconclusive [activator, partial curve]"
Cc1cc2cc(C#N)c(N3CCN(S(C)(=O)=O)CC3)nc2cc1C,inconclusive: 16.7% [activator],
CC1CN(C(=O)c2cc([N+](=O)[O-])cc([N+](=O)[O-])c2)CC(C)O1 (stereo unspecified),inconclusive: 15.6% [activator],
COC(=O)c1ccc2c(c1)S(=O)(=O)NC(=NCCCN1CCOCC1)S2,,"inconclusive [inhibitor, single point]"
O=[N+]([O-])c1nn(-c2cccc(Cl)c2)n(O)c1=NCc1cccnc1,,"inconclusive [inhibitor, single point]"
O=C1Nc2ccccc2N=C(c2ccccc2)c2ccccc21,,"inconclusive [inhibitor, single point]"
Cc1onc(-c2ccccc2)c1C(=O)N1CCN(S(=O)(=O)c2ccc3c(c2)OCCO3)CC1,,"inconclusive [inhibitor, partial curve]"
CCOc1ccc(-n2c(C)c(C(C)=O)c3cc(OCC(N)=O)ccc32)cc1,inconclusive: 12.1% [activator],
CCCCn1c(=O)[nH]c(=O)c2c(C(=O)OCC)cc(-c3cccs3)nc21,,"inconclusive [activator, partial curve]"
COc1ccc2cc3[n+](cc2c1OC)CCc1cc2c(cc1-3)OCO2,inactive: -0.601%,
Cc1ccc(OCc2nc(-c3ccccn3)no2)cc1,,"inconclusive [inhibitor, partial curve]"
O=C(NC1(C(F)(F)F)OCCO1)c1ccc(F)cc1,inconclusive: 9.21% [activator],
CC(=O)N1CCN(S(=O)(=O)c2cccc(C(=O)Nc3ccc4c(c3)OCO4)c2)CC1,,"inconclusive [inhibitor, single point]"
CCC(=O)N1CCc2cc(S(=O)(=O)N3CCN(C(=O)c4ccco4)CC3)ccc21,,"inconclusive [inhibitor, partial curve, poor fit]"
COc1ccc(-c2cc(-c3ccccc3)c(C#N)c(S(C)=O)n2)cc1 (stereo unspecified),,"inconclusive [activator, single point]"
O=C(Nc1ccccc1)c1cc(S(=O)(=O)N2CCOCC2)cs1,,"inconclusive [inhibitor, single point]"
Cc1ccccc1Cn1c2ccccc2c2cn[nH]c(=O)c21,inconclusive: -15.9% [inhibitor],
COc1cccc(-c2csc(N3CCN(CC(=O)NNC(=O)c4ccc(Cl)cc4)CC3)n2)c1,inconclusive: 21.2% [activator],
COC(=O)c1cn(NC(=O)/C=C/c2ccc(OC)c(OC)c2)c(=O)c2ccccc12,,"inconclusive [inhibitor, full curve]"
OCCN1CCN(C2Cc3cc(Cl)ccc3Sc3ccc(Cl)cc32)CC1 (stereo unspecified) (tested in a mixture with another compound),,"inconclusive [inhibitor, partial curve, poor fit]"

Compound,"activity change, negative = inhibition",Potency
O=C(COC(=O)c1ccccc1NCc1ccco1)Nc1ccc2c(c1)OCO2,,"inconclusive [activator, partial curve]"
O=[N+]([O-])c1ccc(Nc2ccc(Cl)cc2)nc1,inconclusive: 8.09% [activator],
O=C(Nc1ccccc1C(=O)N/N=C/c1ccco1)c1ccc(F)cc1,,"inconclusive [inhibitor, partial curve]"
O=C1CN(C(=O)CSc2nnc(-c3ccccc3)n2Cc2ccc3c(c2)OCO3)c2ccccc2N1,,"inconclusive [inhibitor, single point]"
CC1(C)Cc2c(C#N)c(N)sc(=S)c2CS1,inactive: -2.72%,
Cc1ccc(C(=O)C(C)OC(=O)c2cc3cc([N+](=O)[O-])ccc3oc2=O)cc1 (stereo unspecified),,"inconclusive [inhibitor, partial curve, poor fit]"
CC(=O)Nc1sc(NC(=O)c2ccc(Cl)cc2)nc1-c1cccs1,inactive: 3.65%,
COc1ccc(-c2cc3ccc(OCc4nn[nH]n4)cc3oc2=O)cc1,,"inconclusive [activator, partial curve]"
COc1cccc(/C=C2\N=C(SC)SC2=O)c1OC,,"inconclusive [inhibitor, single point]"
CCOc1cc(C(=O)OCC(=O)NC(C)c2ccccc2)ccc1OCC(=O)N1CCOCC1 (stereo unspecified),,"inconclusive [inhibitor, single point]"
CCOC(=O)c1sc(Nc2ccc(OCC)cc2)nc1C,inconclusive: 6.88% [activator],
CCc1nn(-c2ccccc2)c(N)c1C#N,,"inconclusive [inhibitor, single point]"
O=C1CC(Nc2ccc(N3CCOCC3)cc2)C(=O)N1c1ccccc1F (stereo unspecified),inactive: -0.193%,
COc1ccc(OC)c(Cc2nnc(CCC(=O)NCc3ccsc3)o2)c1,inconclusive: 11% [activator],
Cc1ccc(-c2ccc(CCC(=O)O)n2CC2CCCO2)cc1 (stereo unspecified),,"inconclusive [activator, partial curve]"
CCN(C(=O)c1nn(-c2ccc(OC)cc2)c(=O)c2c1c1ccccc1n2C)c1ccc(OC)cc1,,"inconclusive [inhibitor, single point]"
CC(C)Cc1ccc(C(C)C(=O)Nc2ccc(O)cc2)cc1 (stereo unspecified),,"inconclusive [activator, full curve, poor fit]"
COC(CNC(=O)c1ccc2nc(-c3ccccc3)c(-c3ccccc3)nc2c1)OC,,"inconclusive [activator, single point]"
COc1ccc(NC(=O)Nc2ccc3nsnc3c2)cc1,,"inconclusive [inhibitor, single point]"
Cc1nn(Cc2ccc(F)cc2)c(C)c1NC(=O)c1cnn2c1NC(c1ccccc1)CC2C(F)(F)F (stereo unspecified),,"inconclusive [inhibitor, single point]"
CCc1ccc(OCC(=O)OC2CCS(=O)(=O)C2)cc1 (stereo unspecified),inconclusive: 24.5% [activator],
O=C(COC(=O)c1cc(F)c(F)cc1Cl)NC1CC1,,"inconclusive [inhibitor, partial curve]"

Compound,"activity change, negative = inhibition",Potency
COCCNC(=O)c1c(N)n(/N=C/c2cccs2)c2nc3ccccc3nc12,,"inconclusive [activator, partial curve]"
Cc1ccc(Nc2ccc(C(=O)O)cc2N)cc1,inactive: 0.133%,
C/C(N)=C(/C#N)C(=O)CSc1n[nH]c(-c2cccs2)n1,,"inconclusive [inhibitor, single point]"
O=c1cc(Cl)[nH]c(=O)n1CCNc1ncc(C(F)(F)F)cc1Cl,,"inconclusive [inhibitor, single point]"
COC(=O)CSc1ccc(S(=O)(=O)N2CCOCC2)cc1[N+](=O)[O-],,"inconclusive [inhibitor, full curve, poor fit]"
Cc1cccc(-n2nnnc2SC(C)C(=O)NCCC2=CCCCC2)c1 (stereo unspecified),,"inconclusive [inhibitor, single point]"
CCSc1nc2cc(C(=O)OC)ccc2c(=O)n1CC,inconclusive: -15.4% [inhibitor],
Cn1c2c(c(=O)n(C)c1=O)C1c3ccccc3OCC1C(C)(C)O2 (stereo unspecified),,"inconclusive [inhibitor, single point]"
On1onc2c3cc(-c4ccccc4)nc3ccc21,,"inconclusive [inhibitor, partial curve]"
Cn1c(/C=C/c2cccc([N+](=O)[O-])c2)nc2ccccc2c1=O,inconclusive: 17.2% [activator],
COc1ccccc1C(CCNS(=O)(=O)c1ccc(C)cc1)c1ccco1 (stereo unspecified),,"inconclusive [inhibitor, single point]"
Oc1cccc(/C=N\Nc2nncc(-c3ccccc3)n2)c1,inconclusive: 15.2% [activator],
O=c1[nH]c2ccccc2c(O)c1-c1ccccc1[N+](=O)[O-],inconclusive: 18.1% [activator],
CC(C)c1ccccc1NC(=O)COC(=O)COc1ccccc1[N+](=O)[O-],,"inconclusive [inhibitor, single point]"
Cc1ccc(-c2nc3ncccn3c2Nc2ccc3c(c2)OCO3)o1,inactive: -1.7%,
O=C(O)c1c2c(nc3ccc(S(=O)(=O)N4CCC(C(=O)N5CCCCC5)CC4)cc13)CCCC2,inconclusive: -15.8% [inhibitor],
COc1ccc(/C=N/NC(=O)CCCOc2ccc(Cl)cc2Cl)cc1[N+](=O)[O-],,"inconclusive [inhibitor, single point]"
O=C(NCCc1ccc(F)cc1)c1cc(-c2ccncc2)nc2ccccc12,,"inconclusive [inhibitor, full curve, poor fit]"
S=c1[nH]nc(-c2ccc3ccccc3n2)n1-c1ccc2ncccc2c1,,"inconclusive [inhibitor, single point]"
COc1ccc(CCn2c(C)nc3ccccc3c2=O)cc1OC,inconclusive: 17.9% [activator],
CCC/C=N/NC(=O)c1cccc(Br)c1,,"inconclusive [inhibitor, single point]"
COc1cc(CNc2ccc(N3CCCC3)cc2)cc(Cl)c1OC,,"inconclusive [inhibitor, single point]"
